Measured values taken from PubChem BioAssay AID488969 (Vanderbilt High Throughput Screening Facility, 2010).
The full ranking holds about 110,000 compounds; the median of “z-score” is about -0.1, and the highest 2% start at about 2. This is one part of the list. The source made the active and inactive calls.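 How the source made its calls: active means z-score in the third read window above 3 or below -3; inactive means the rest.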

Each compound was assayed against Metabotropic glutamate receptor 8 (Rattus norvegicus) (UniProt P70579) (assay: rat mGluR8 modulators via GIRK flux, primary screen, cell-based, thallium flux, HTS (AID 488969)). Details: HEK293 rat mGluR8, GIRK (G protein-gated inwardly rectifying potassium channel) thallium flux, FluoZin2; at 10 µM; stronger effect = higher value; submaximal glutamate (EC20) added with thallium.
UniProt P70579, sequence (P70579 whole entry, looked up): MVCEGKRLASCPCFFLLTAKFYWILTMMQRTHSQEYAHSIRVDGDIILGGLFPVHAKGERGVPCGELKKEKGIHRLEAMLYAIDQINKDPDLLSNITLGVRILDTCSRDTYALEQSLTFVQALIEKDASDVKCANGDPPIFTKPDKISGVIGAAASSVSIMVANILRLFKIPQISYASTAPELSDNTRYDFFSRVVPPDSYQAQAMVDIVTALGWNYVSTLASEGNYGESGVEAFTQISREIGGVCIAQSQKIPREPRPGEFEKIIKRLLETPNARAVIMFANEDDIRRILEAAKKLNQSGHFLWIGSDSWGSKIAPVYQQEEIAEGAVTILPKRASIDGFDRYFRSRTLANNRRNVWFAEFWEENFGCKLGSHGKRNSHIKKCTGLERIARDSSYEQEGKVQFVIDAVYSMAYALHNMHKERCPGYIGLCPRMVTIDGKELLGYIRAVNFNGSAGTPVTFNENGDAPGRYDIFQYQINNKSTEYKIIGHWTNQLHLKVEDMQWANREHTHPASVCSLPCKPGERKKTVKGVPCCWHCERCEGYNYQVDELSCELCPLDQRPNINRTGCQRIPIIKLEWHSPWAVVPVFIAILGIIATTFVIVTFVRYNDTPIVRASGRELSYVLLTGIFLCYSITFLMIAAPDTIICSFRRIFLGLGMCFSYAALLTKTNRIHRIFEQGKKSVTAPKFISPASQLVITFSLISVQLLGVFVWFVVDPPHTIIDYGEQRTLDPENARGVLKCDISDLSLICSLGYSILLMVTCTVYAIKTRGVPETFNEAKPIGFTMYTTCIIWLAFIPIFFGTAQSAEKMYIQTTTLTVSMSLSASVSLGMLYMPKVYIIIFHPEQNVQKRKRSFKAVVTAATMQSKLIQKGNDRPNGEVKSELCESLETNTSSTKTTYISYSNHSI

SMILES | z-score
c1ccc2c(Nc3nc4c(s3)CCCC4)cccc2c1 | 0.0222
COc1ccc(-n2nnc3c(=O)n(CC(=O)N4CCCC4)cnc32)cc1 | -0.175
CCCCCCOC(=O)Cc1c(C)nc(-c2ccccc2)[nH]c1=O | -0.0971
COC(=O)c1cc(NC(=O)C2COc3ccccc3O2)cc(C(=O)OC)c1 (stereo unspecified) | -1.1
CCCN1C=CC(=C/C=C(\C#N)C(=O)OCC)C=C1 | -2.8
O=C(Cc1ccccc1)N/N=C/c1cc(Br)c(Br)o1 | -0.248
COC(=O)Cn1cnc2c(C#N)c3n(c2c1=O)CCCC3 | -0.2
CCc1nnc(NC(=O)CSc2nnc(CNc3ccc(Cl)cc3)o2)s1 | 1.29
CCOC(=O)N1CCC(Nc2c(NCCCN(CC)CC)c(=O)c2=O)CC1 | -0.0427
CC(=O)Nc1cccc(N(C)S(C)(=O)=O)c1 | 0.102
Cc1ccc(C(=O)O)c(C(=O)Nc2nc(C)cs2)c1 | -0.407
COc1ccc(NC(=O)N2CCCC2C(=O)Nc2ccccc2)cc1 (stereo unspecified) | 0.0437
O=C(COc1cccc2cccnc12)N/N=C1\SCC(=O)N1Cc1ccccc1 | -0.366
Clc1ccc2c(c1)c1cc(Cl)ccc1n2CN1CCOCC1 | 0.0165
COc1cccc(OC)c1C(=O)NCCN1CCN(C(=O)c2c(OC)cccc2OC)CC1 | -0.438
CCOC(=O)CN1C(=O)C(Sc2n[nH]c(-c3cccc(C)c3)n2)CCc2ccccc21 (stereo unspecified) | -0.33
COc1ccc(C2C=C(c3ccc(Cl)cc3)Nc3nc(NC(C)=O)nn32)cc1 (stereo unspecified) | 0.461
O=C(Nc1cccnc1)c1ccc(COc2cc(Cl)ccc2Cl)o1 | 0.117
Nc1cc(N)nc(SCc2nnnn2-c2ccc(Cl)cc2)n1 | -0.0895

SMILES | z-score
CC1Cc2ccccc2N1C(=O)COC(=O)CNC(=O)c1ccc(Br)o1 (stereo unspecified) | -0.414
CC12CC3(C)CC(C)(C1)CC(C(=O)NC(=S)N1CCOCC1)(C2)C3 | active: 8.61
Cc1nn(Cc2ccccc2)c(C)c1NC(=O)CSc1nc(C2CC2)nc2c1cnn2-c1ccccc1 | 0.136
COc1ccccc1NC(=O)CCn1cccc1 | 0.0878
CC(NCc1ccc(-c2ccccc2)cc1)C(O)c1ccccc1 (stereo unspecified) | 0.565
CCOc1cc(NC(=O)c2ccccc2C)c(OCC)cc1NC(=O)C1=Cc2ccccc2OC1 | -0.376
CCCCn1c(N)c(-c2nc3ccccc3s2)c2c([N+](=O)[O-])nn(CC)c(=O)c21 | -0.243
CCc1ccc(-n2nc3ccc(NC(=O)c4ccc5c(c4)OCO5)cc3n2)cc1 | -0.204
COC(=O)c1cc(NC(=O)C2COc3ccccc3O2)ccc1Cl (stereo unspecified) | -0.36
Cn1c(SCC(=O)Nc2ccc(F)cc2)nnc1-c1cccnc1 | -0.349
Cc1ccc(NC(=O)C2CCN(S(=O)(=O)c3ccc(F)cc3)CC2)cc1 | -0.0485
CCOC(=O)c1cnc(SC)nc1Oc1cccc(NS(=O)(=O)c2ccc(C)cc2)c1 | -0.962
CCCCNC(=O)c1onc(CCl)c1C(=O)OC | 0.00479
COc1cc(CNn2c(C)n[nH]c2=S)cc(Cl)c1OCc1ccccc1 | -0.366
CCOc1cccc(CNCCNC(=O)c2nonc2N)c1 | -0.576
CCN=C1S/C(=C\c2cn(C(C)=O)nc2-c2ccccc2)C(=O)N1CC | -0.379
O=S(=O)(NCc1ccccc1)c1ccc(Cl)cc1 | 2.77
Cc1ccc(NC(=O)NC(=O)CSc2nnc(-c3ccc(Cl)cc3Cl)n2N)c(C)c1 | -0.0115
CCOC(=O)N1CCN(C2CC(=O)N(c3ccc(Cl)c(Cl)c3)C2=O)CC1 (stereo unspecified) | 0.175

SMILES | z-score
COC(=O)c1cc(COC(=O)c2ccc(OC)c(S(=O)(=O)N3CCCC3)c2)oc1C | -0.713
CC(=O)c1cccc(NC=C2C(=O)OC3(CCCCC3)OC2=O)c1 | -0.292
C/C(=N\Nc1ccc(C(=O)O)cc1)c1nc2ccccc2n1C | -0.702
CCOc1ccc(CCNC(=O)COC(=O)c2ccco2)cc1OCC | -0.519
COc1ccc(C)cc1S(=O)(=O)N(C)CC(=O)N1CCCCC1 | 0.0196
CC(C)Cn1c(SCC(=O)N2CCCCC2)nc2ccccc2c1=O | -0.537
COC(=O)C1CCCN1C(=O)c1cccs1 (stereo unspecified) | active: 5.05
COc1ccc(CCNC(=O)c2ccc(N3CCCC3=O)cc2)cc1OC | 0.885
Cc1ccc(C)c(C(=O)COc2ccc(C)nc2[N+](=O)[O-])c1 | -0.0394
CCOC(=O)c1nsnc1NCCSC(=N)N | -0.12
S=c1[nH]nc(-c2cccnc2)o1 | -0.348
O=C(Cn1cnc2ccccc2c1=O)c1cccs1 | -0.0304
CCC1(C(=O)c2ccccc2)C2c3cc(Br)ccc3OC(=O)C21C(=O)N1CCOCC1 (stereo unspecified) | 0.194
NC1=NC(c2ccccc2Cl)n2c(nc3ccccc32)N1 (stereo unspecified) | 1.47
COCc1nc(-c2cc(Br)ccc2OC)no1 | -0.14
COc1ccc(CCNC(=O)c2ccc(N3CCCC3=O)cc2)cc1 | 0.0212
COc1ccccc1C(=O)Nc1ccon1 | -0.11
COc1ccc(CCNC(=O)C2CCCN(S(C)(=O)=O)C2)cc1OC (stereo unspecified) | 0.474
